This is an account of results in article PMC6029062.

By UniProt entry, the sequences of proteins in these tests, tags left out. Residues count along the entry.
UniProt Q96AC1: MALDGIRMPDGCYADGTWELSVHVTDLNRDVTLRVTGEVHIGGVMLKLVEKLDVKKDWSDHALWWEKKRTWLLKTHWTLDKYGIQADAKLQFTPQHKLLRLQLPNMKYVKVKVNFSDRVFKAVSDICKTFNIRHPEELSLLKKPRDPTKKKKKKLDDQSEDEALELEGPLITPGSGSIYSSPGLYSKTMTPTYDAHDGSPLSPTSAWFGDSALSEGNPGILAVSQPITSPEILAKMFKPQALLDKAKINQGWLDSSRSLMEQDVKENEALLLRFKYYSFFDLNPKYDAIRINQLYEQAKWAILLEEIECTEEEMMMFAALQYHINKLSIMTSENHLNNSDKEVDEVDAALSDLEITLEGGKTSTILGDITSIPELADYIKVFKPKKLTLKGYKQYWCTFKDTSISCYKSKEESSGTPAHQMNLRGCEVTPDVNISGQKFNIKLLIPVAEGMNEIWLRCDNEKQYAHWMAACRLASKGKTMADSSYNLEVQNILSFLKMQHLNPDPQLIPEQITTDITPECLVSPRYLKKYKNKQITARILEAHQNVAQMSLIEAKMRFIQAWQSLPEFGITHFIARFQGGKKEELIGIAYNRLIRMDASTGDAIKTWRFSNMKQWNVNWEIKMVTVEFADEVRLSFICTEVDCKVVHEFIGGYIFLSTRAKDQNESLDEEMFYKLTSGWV
UniProt P18084, residues 743-799: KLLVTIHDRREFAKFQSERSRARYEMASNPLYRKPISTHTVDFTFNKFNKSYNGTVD
UniProt P18564, residues 731-788: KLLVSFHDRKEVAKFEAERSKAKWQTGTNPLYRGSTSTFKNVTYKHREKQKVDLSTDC

Assay [1] deals with kindlin-2 (yeast two-hybrid fusion in pGBKT7) (UniProt Q96AC1). In words: two-hybrid; Matchmaker Gold Yeast Two-hybrid system; β3-endonexin or kindlin-2 in pGBKT7, integrin β CTs in pGADT7; serial dilution on SD-3 selection media (−Leu/−Trp/−His).
Assay [2] addresses T1, GST-fused integrin β7 CT (UniProt P26010).
T1 sequence: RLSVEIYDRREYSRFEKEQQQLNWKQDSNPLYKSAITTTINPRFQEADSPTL
In words: pull-down; purified GST-fused β CT proteins on Glutathione Sepharose 4B beads, incubated with lysates of HUVECs expressing EGFP-β3-endonexin overnight at 4 °C; Western blotting of the precipitates; only the target purified. For orientation: Immunoblotting shows a protein as a band on a membrane.

The target of assay [3] is GST-fused integrin β5 CT (UniProt P18084). The description is as above.
For assay [4], the target named is GST-fused integrin β6 CT (UniProt P18564). The assay is described as above.
Assay [5] concerns the target GST-fused integrin β2 CT. The assay is described as above.
The target in assay [6] is GST-fused integrin β1 CT. Described as above.

Results are given in words; binding and its absence hold for the method and conditions named. For some of these results: In cells and extracts the contact can be indirect. Some binding calls cover weakened binding; strength is not graded here. For some of these results: Sequences can lack the tags named with a protein.

Take “integrin β6 CT (yeast two-hybrid fusion in pGADT7) (from UniProt P18564 731-788) (domain or fragment)”: the binding entry in assay [1] is “no binding”. With “endogenous kindlin-2 (from UniProt Q96AC1 1-680)”, the binding result is recorded as “binds” in assay [2]; “no binding” in assay [3]; “no binding” in assay [4]; “no binding” in assay [5]; “binds” in assay [6]. Take “integrin β5 CT (yeast two-hybrid fusion in pGADT7) (from UniProt P18084 743-799) (domain or fragment)”: the binding entry in assay [1] is reported as “no binding”.

B1: integrin β7 CT (yeast two-hybrid fusion in pGADT7) (domain or fragment, UniProt P26010 747-798)
chain: T1 sequence
With B1, the binding entry in assay [1] is “binds”. On the same count and under the same terms, the result for KLLMIIHDRREFAKFEKEKMNAKWDTGENPIYKSAVTTVVNPKYEGK (domain or fragment) [integrin β1 CT (yeast two-hybrid fusion in pGADT7)] reads “binds”; that for KALIHLSDLREYRRFEKEKLKSQWNNDNPLFKSATTTVMNPKFAES (domain or fragment) [integrin β2 CT (yeast two-hybrid fusion in pGADT7)], “no binding”.
